The values below come from ChEMBL document CHEMBL4888484, “Replenishing the malaria drug discovery pipeline: Screening and hit evaluation of the MMV Hit Generation Library 1 (HGL1) against asexual blood stage Plasmodium falciparum ,using a nano luciferase reporter read-out” (2022).

Screen size: about 150,000 compounds; about 540 (0.36%) showed an effect of 50% or more. The list shows a part of the results.

In this assay the test system is Plasmodium falciparum. Put plainly: Primary screen in NF54 nanoGlo assay, in single point, at 2uM, 72h; a lower Z score goes with more inhibition. It counts as functional, Erythrocyte. The conditions noted are these: timepoint 72 hour.
As usually defined, the % Inhibition is the relative decrease from the control value, in per cent. On to `O=C(O)c1cc(C2CC2)n2nc(-c3ccccc3)cc2n1`, for which the “% Inhibition” value is given as -4% and the Z score is listed as 0.52.
For `Cc1cccc(C)c1OCC(O)CN1CCCCC1Cn1cncn1` (stereo not drawn) the same measures were 1% and -0.21.
For `Cc1ccc(CNC(=O)c2cc3n(n2)C[C@@](C)(C(=O)NC2CCCCCC2)N(C)C3=O)cc1`, in that order: 10% and -1.14.
Turning to `Cc1ccc(C)c(C2CN(CCn3c(C)csc3=O)C(C)CO2)c1` (stereo not drawn), the “% Inhibition” value was -4% and the Z score was determined as 0.55.
For `O=C(NCCCN1CCOCC1)c1cc2n(n1)CCN(Cc1ccccc1Cl)C2=O`, in that order: -20% and 3.65.
For `COCCCn1cnnc1CNS(=O)(=O)c1c(C)cc(C)c2nonc12` the same measures were -4% and 0.48.
Turning to `O=C(CCC1CCN(C/C=C/c2ccc(F)cc2)CC1)N1CCOCC1`, the “% Inhibition” value was -27% and the Z score came to 2.39.
For `COc1ccc(Oc2cnn(-c3ccc(C)cc3)c(=O)c2Nc2cccc(C(=O)N(C)Cc3ccccc3)c2)cc1`, in that order: 2% and -0.2.
In the case of `Cc1nc(C)c(C(=O)OCCN2CCCCC2)s1`, the “% Inhibition” value is reported as -4% and the Z score was determined as 0.49.
In the case of `COc1cccc(CNC(=O)[C@@H]2C[C@@H](O)CN2C2CCN(C(=O)c3ccc(C)c(F)c3)CC2)c1`, the “% Inhibition” value is reported as -3% and the Z score is 0.43.
For `O[C@H]1CCCN(c2ncccc2CNc2ncnc3c2CCC3)C1`, in that order: -26% and 3.31.
Take `CC(C)(C)n1nccc1NC(=O)c1c(Cl)cccc1OCC1CC1`: the “% Inhibition” value stood at 6% and the Z score was -1.01.
For `Cc1nc2n(n1)CC(NC(C)C1CCCN1C(=O)OC(C)(C)C)CC2` (stereo not drawn), the “% Inhibition” value was -10% and the Z score was determined as 1.21.
As to `O=C1CCCCC1C1CCCCCN1C(=O)c1cccc(Oc2nccs2)c1` (stereo not drawn), the “% Inhibition” value is on record as 0% and the Z score is given as -0.03.
`Cc1cccc(CNC(=O)c2[nH]c3ccc(F)cc3c2NC(=O)c2ccccc2)c1`: the “% Inhibition” value is listed as -1% and the Z score was determined as 0.25.
For `COc1ncc(NC(=O)c2cccnc2)c(N(C)C)n1`, in that order: 3% and -0.41.
For `CC(=O)NC1(c2noc(CCC(=O)N3CCNC[C@@H]3C)n2)CCCCCC1` the same measures were 12% and -1.6.
For `Cc1nc(CS(=O)(=O)CCCO)sc1C` the same measures were -8% and 1.5.
Regarding `O=C(NCCC1CCCCO1)NC1C2Cc3ccccc3C21` (stereo not drawn), the “% Inhibition” value is on record as -1% and the Z score is reported as 0.13.
For `O=C(c1cc2n(n1)CCN(C(=O)[C@@H]1COCCO1)C2)N1CCCC1` the same measures were -3% and 0.33.
For `CC[C@H](Oc1ccccc1C)c1nnc(C2CCOCC2)o1` the same measures were -1% and 0.16.
For `C=C(C)COc1ccccc1CN[C@@H](C)c1nncn1C` the same measures were -3% and 0.55.
As to `CCS(=O)(=O)c1ccccc1N(C)CCN1CCOCC1`, the “% Inhibition” value is on record as -14% and the Z score came to 1.86.
For `COc1ccc(Cl)cc1NC(=O)CN1CCCN(c2ccc(C(F)(F)F)cn2)CC1`, in that order: -8% and 1.03.
In the case of `COc1ccc(C(=O)N2CCC3(CC2)C[C@@H](N(C)Cc2ccccc2)CCO3)cn1`, the “% Inhibition” value was determined as 8% and the Z score is given as -1.27.
For `CC(=O)NCc1csc(C2CCN(C(=O)c3cccc(Br)c3)CC2)n1`, in that order: 0% and 0.04.
For `CC(C)[C@H](NC(=O)c1sccc1Cl)C1(CO)CCC1` the same measures were -3% and 0.46.
For `CCS(=O)(=O)NCCNC(=O)c1nnn(-c2cccc3ncccc23)c1C` the same measures were -4% and 0.44.
For the compound `O=C(Cc1ccccc1)NCCOc1ccc2c(c1)OCO2`, the “% Inhibition” value is on record as -4% and the Z score turned out to be 0.64.
For `C[C@]1(c2ccccc2)CCC(=O)N(CC2(CO)CCC2)C1` the same measures were -2% and 0.42.
As for `Cc1cccn2c(CN3C[C@H](F)C[C@H]3C(N)=O)cnc12`, the “% Inhibition” value is reported as 7% and the Z score was -1.05.
For `Cc1ccccc1C1CC1c1nc(-c2cnccn2)no1` (stereo not drawn), the “% Inhibition” value is given as -6% and the Z score is 0.64.
For `CCc1nsc(N[C@@H](C)c2n[nH]c(=O)n2C)n1`, in that order: -12% and 1.99.
Take `CN(C)C(=O)NCC(=O)N1CCC([C@@H](O)CCc2ccccc2)CC1`: the “% Inhibition” value turned out to be 3% and the Z score was -0.49.
`C[C@]1(C(=O)Nc2cccc3c2CNC3=O)CCNC(=O)C1`: the “% Inhibition” value was -1% and the Z score was found to be 0.07.
For `NS(=O)(=O)c1ccc(CNC(=O)c2ccc(S(=O)(=O)N3CCCCCC3)cc2)cc1`, in that order: -17% and 2.76.
Take `Cn1nnc2c(N3CCC4(CC3)OCCO4)ncnc21`: the “% Inhibition” value is listed as -4% and the Z score turned out to be 0.64.
Consider `O=C(c1ccco1)N1CCC(F)(C(=O)N2CCOCC2)CC1`, for which the “% Inhibition” value stood at 12% and the Z score is listed as -1.5.
Consider `CC(C)c1cc(-c2nc(-c3cn4ccccc4n3)no2)no1`, for which the “% Inhibition” value is -16% and the Z score is listed as 1.6.
Regarding `CC(C)N1CCCN(C(=O)C2CC3CCC2C3)CC1` (stereo not drawn), the “% Inhibition” value is on record as -12% and the Z score turned out to be 1.65.
Turning to `Nc1ccc(C(=O)N[C@H]2CC[C@@H]3CCC[C@@H]32)cn1`, the “% Inhibition” value is -6% and the Z score was found to be 1.12.
`O=C(COc1ccccc1)Nc1ccc(N2CCCN(Cc3ccccc3C(F)(F)F)CC2)nc1`: the “% Inhibition” value is recorded as -19% and the Z score was 1.83.
For `COc1ccc(CNC(=O)N2CCC(Cc3nncn3CC3CC3)CC2)cc1`, in that order: -10% and 1.19.
`COCCN(CC(=O)Nc1cccc2[nH]ccc12)C(=O)OC(C)(C)C`: the “% Inhibition” value is -2% and the Z score was 0.32.
For `Cn1nccc1-c1nc(-c2ccc(N3CCCC3)cn2)no1`, in that order: -7% and 1.43.
For `COc1ccc(CC(=O)N2CCC(n3nc(C(C)C)cc3C(C)C)CC2)cc1OC` the same measures were -18% and 2.02.
`O=C(N[C@@H](c1ccccc1)c1ccc2c3c(cccc13)CC2)C(c1ccccc1)c1ccccc1`: the “% Inhibition” value turned out to be 6% and the Z score was -0.73.
Take `Cc1ccc(F)c(NC(=O)C2(C)CNC2)c1`: the “% Inhibition” value is listed as -11% and the Z score was 1.09.
`c1ccc(-c2nc(CN3CCOC4(CCCC4)C3)co2)cc1`: the “% Inhibition” value is recorded as -8% and the Z score was found to be 1.59.
In the case of `O=C1CCC(=O)N1CCOc1cc(F)cc(Br)c1`, the “% Inhibition” value was -5% and the Z score turned out to be 0.73.
Turning to `Fc1ccc(OCc2nc(-c3nnn4c3CO[C@H](c3ccccc3Cl)C4)no2)cc1`, the “% Inhibition” value is 4% and the Z score was -0.82.
For `Cc1cc(S(N)(=O)=O)c(C(C)C)cc1Br` the same measures were 4% and -0.62.
With `CC(C)CNc1nc(C(=O)NCCc2ccccn2)cs1`, the “% Inhibition” value is -16% and the Z score was determined as 1.92.
Take `CC(C)(C)OC(=O)N1CCC(c2c(C(=O)N3CCN(c4ccc(Cl)cc4)CC3)cnn2-c2ccccc2)CC1`: the “% Inhibition” value is 10% and the Z score is -1.8.
For `Cc1ccc(OC(C)(C)C(=O)N[C@H]2CCOC[C@@H]2OCCN(C)C)cc1`, the “% Inhibition” value is -22% and the Z score is 1.95.
For `Cc1nn(C(C)C)c2nc(-c3cncn3C)[nH]c12` the same measures were -12% and 1.58.
With `CCOC(=O)N1CCC(N[C@@H](CC)c2nc(C)c[nH]2)CC1`, the “% Inhibition” value was 13% and the Z score is given as -1.68.
For `Cn1ccc(-c2cc(C(=O)N3CCC[C@]4(CC=CCC4)C3)no2)n1`, in that order: -24% and 3.15.
For `CCCc1noc([C@H](C)OC(=O)c2cc[nH]n2)n1` the same measures were 32% and -0.43.
For `C[C@@H](Cn1cccn1)C(=O)N1CCN(c2cnccn2)CC1` the same measures were -3% and 0.49.
For `Cc1ccc(-n2ncc3c(C(C)C)n[nH]c(=O)c32)cc1`, the “% Inhibition” value is -15% and the Z score was 1.79.
For `Cc1ccc(-c2cc(C(=O)NC(C)C)cc(S(=O)(=O)N3CCOCC3)c2)s1` the same measures were -4% and 0.52.
Regarding `Cn1cc(C#N)c(=O)n(C[C@H](O)COCc2ccccc2)c1=O`, the “% Inhibition” value is on record as -11% and the Z score stood at 1.44.
As to `Cc1ccc([C@@H]2Cn3nnc(C(=O)N4CCC(C(=O)NCC5CC5)CC4)c3CO2)cc1`, the “% Inhibition” value was -13% and the Z score came to 1.22.
For `CN(Cc1ncc[nH]1)C(=O)[C@@H]1COCCN1CC(F)(F)F`, the “% Inhibition” value is 3% and the Z score was -0.36.
For `Cc1cc(C)cc(-n2ncc3c(=O)n(C[C@H](O)COc4ccc(C)cc4C)cnc32)c1`, the “% Inhibition” value is on record as -9% and the Z score worked out at 0.89.
For `CC(C)(C)OC(=O)NC[C@H]1CC(C(=O)Nc2ccc(CNc3ccccc3)cc2)=NO1`, in that order: 32% and -3.65.
For `CCN(Cc1cc(OC)ccc1-n1cccn1)[C@H]1COC[C@@H]1O` the same measures were -6% and 1.05.
Regarding `O=C(CCC(=O)N1CCOC[C@@H]1CC1CC1)N1CCC(O)CC1`, the “% Inhibition” value stood at 2% and the Z score was -0.24.
For `O=C(CN1CCc2c1cccc2C(F)(F)F)N1CCNC1=O` the same measures were -6% and 0.55.
With `O=C(c1ccc(F)cc1)N1CCCn2c1nc1ccccc12`, the “% Inhibition” value is recorded as -8% and the Z score is reported as 1.04.
For `C[C@H]1Cc2ccccc2N1CCNC(=O)c1cccc(-n2ccnn2)c1`, in that order: -15% and 1.52.
For `O=C(CCCN1C(=O)c2cccnc2Oc2ccccc21)NCc1ccccc1Cl`, in that order: -6% and 0.74.
For `CCN(CCc1noc(C2CCC2)n1)C(C)=O` the same measures were -3% and 0.3.
Consider `Cc1ccc(S(=O)(=O)c2c(NC(=O)c3ccco3)n(C3CCCCC3)c3nc4ccccc4nc23)cc1`, for which the “% Inhibition” value is given as -11% and the Z score came out at 1.85.
Consider `CCNC(=O)c1ccc(S(=O)(=O)NOC)cc1`, for which the “% Inhibition” value was determined as 2% and the Z score was -0.23.
As to `CCc1cc(N2CC(N(C)C)C2)nc(C)n1`, the “% Inhibition” value is -7% and the Z score was 1.06.
For `COC1(CNC(=O)c2cnn(CC(F)(F)F)c2)CCCCC1` the same measures were -5% and 0.46.
With `CCOC(=O)c1cn(Cc2cccc(F)c2)c2nc(C)ccc2c1=O`, the “% Inhibition” value is on record as -18% and the Z score is 1.92.
For `O=c1[nH]c2ccccc2n2c(-c3ccc(Cl)cc3Cl)nnc12`, the “% Inhibition” value is recorded as -44% and the Z score was found to be 5.18.
For `Cc1ccc(C2CC2C(=O)N2CCCN(CC(N)=O)CC2)cc1C` (stereo not drawn) the same measures were -10% and 1.89.
On to `COc1ccc(-c2cc3n(n2)CCC(=O)N3Cc2ccc(C(=O)NCCCN3CCCC3)cc2)cc1`, for which the “% Inhibition” value was determined as 17% and the Z score is -2.
Take `C[C@@]1(C(=O)NCc2ccccc2)CCC(=O)N1Cc1cccc(Cl)c1`: the “% Inhibition” value is reported as -14% and the Z score was 1.56.
In the case of `CN(C)S(=O)(=O)c1cccc(C(=O)NC2(c3ccc(Br)cc3)CCCC2)c1`, the “% Inhibition” value was -19% and the Z score came to 2.51.
